According to the supplement of paper PMC12217912:
This is one part of the list. The full chains were built here from the parent and the listed change. Inactive controls read about 0.05.

B1: TEV protease; numbered along this chain (parent)
chain: MGESLFKGPRDYNPISSSICHLTNESDGHTTSLYGIGFGPFIITNKHLFRRNNGTLVVQSLHGVFKVKDTTTLQQHLVDGRDMIIIRMPKDFPPFPQKLKFREPQREERICLVTTNFQTKSMSSMVSDTSCTFPSGDGIFWKHWIQTKDGQCGSPLVSTRDGFIVGIHSASNFTNTNNYFTSVPKNFMELLTNQEAQQWVSGWRLNADSVLWGGHKVFMVKPEEPFQPVKEATQL

Variants of: B1
Test: raw area under fraction-flipped curve 0-4 h after induction (AUC4h, not background-subtracted), DNA-recorder readout of cleavage of the substrate (dimensionless); higher = more cleavage of the substrate by the protease variant
Details: temperature: 34 °C; time window: 0-4 h after rhamnose induction
Description: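 In vivo DNA recorder in E. coli TOP10(DE3) ΔrhaA at 34 °C. Each TEVp single-site mutant (parent TEVp 0) is paired with a single-site variant of the 7-mer TEVs (canonical ENLYFQ|S). The substrate sits between flexible linkers in a Bxb1-sfGFP-TEVs-SsrA fusion, so cleavage stabilises Bxb1 and speeds flipping of a recombination array, read by NGS. The value is the raw area under the fraction-flipped curve over 0-4 h after rhamnose induction (AUC4h), with ≥20 reads per time point. It is not background-subtracted; inactive controls average about 0.047.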
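Further: Bxb1 expression induced with 0.2% (w/v) L-rhamnose at OD600 near 0.5, cultures sampled hourly, flipped fraction per protease–substrate barcode pair counted by paired-end Illumina sequencing.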

Variant | area with substrate ENLYCQS | area with substrate ENLYDQS | area with substrate ENLYEQS | area with substrate ENLYGQS | area with substrate ENLYHQS | area with substrate ENLYIQS | area with substrate ENLYKQS | area with substrate ENLYMQS | area with substrate ENLYNQS | area with substrate ENLYPQS | area with substrate ENLYQQS | area with substrate ENLYSQS | area with substrate ENLYTQS | area with substrate ENLYVQS | area with substrate ENLYWQS | area with substrate ENLYYQS | area with substrate ENLYLQS | area with substrate ENLYRQS
MGESLFKGPRDYNPISSSICHLTNESDGHTTSLYGIGFGPFIITNKHLFRRNNGTLVVQSLHGVFKVKDTTTLQQHLVDGRDMIIIRMPKDFPPFPQKLKFREPQREERICLVTTNFQTKSMSSMVSDTSCTFPCGDGIFWKHWIQTKDGQCGSPLVSTRDGFIVGIHSASNFTNTNNYFTSVPKNFMELLTNQEAQQWVSGWRLNADSVLWGGHKVFMVKPEEPFQPVKEATQL [S135C] | 0.0998 | 0.0584 | 0.0647 | 0.0673 | 0.0388 | 0.0679 | 0.0616 | 0.0548 | 0.057 | 0.0601 | 0.0682 | 0.058 | 0.0618 | 0.0914 | 0.0703 | 0.0257 | – | –
MGESLFKGPRDYNPISSSICHLTNESDGHTTSLYGIGFGPFIITNKHLFRRNNGTLVVQSLHGVFKVKDTTTLQQHLVDGRDMIIIRMPKDFPPFPQKLKFREPQREERICLVTTNFQTKSMSSMVSDTSCTFPSGIGIFWKHWIQTKDGQCGSPLVSTRDGFIVGIHSASNFTNTNNYFTSVPKNFMELLTNQEAQQWVSGWRLNADSVLWGGHKVFMVKPEEPFQPVKEATQL [D137I] | 0.0886 | 0.0607 | 0.085 | – | 0.0468 | 0.0912 | 0.112 | 0.0836 | – | 0.0685 | 0.0694 | – | 0.0821 | 0.0971 | 0.0879 | – | 0.111 | –
MGESLFKGPRDYNPISSSICHLTNESDGHTTSLYGIGFGPFIITNKHLFRRNNGTLVVQSLHGVFKVKDTTTLQQHLVDGRDMIIIRMPKDFPPFPQKLKFREPQREERICLVTTNFQTKSMSSMVSDTSCTFPSGDGINWKHWIQTKDGQCGSPLVSTRDGFIVGIHSASNFTNTNNYFTSVPKNFMELLTNQEAQQWVSGWRLNADSVLWGGHKVFMVKPEEPFQPVKEATQL [F140N] | 0.0704 | 0.0658 | 0.0634 | 0.0654 | – | 0.0715 | 0.0699 | 0.0593 | 0.0633 | 0.0632 | 0.0558 | 0.058 | 0.0649 | 0.066 | – | 0.0568 | 0.0698 | 0.0557
MGESLFKGPRDYNPISSSICHLTNESDGHTTSLYGIGFGPFIITNKHLFRRNNGTLVVQSLHGVFKVKDTTTLQQHLVDGRDMIIIRMPKDFPPFPQKLKFREPQREERICLVTTNFQTKSMSSMVSDTSCTFPSGDGIQWKHWIQTKDGQCGSPLVSTRDGFIVGIHSASNFTNTNNYFTSVPKNFMELLTNQEAQQWVSGWRLNADSVLWGGHKVFMVKPEEPFQPVKEATQL [F140Q] | 0.0657 | 0.0635 | 0.06 | 0.0598 | – | – | 0.0696 | 0.0436 | 0.061 | 0.0727 | 0.0681 | – | – | – | – | 0.0583 | – | –
MGESLFKGPRDYNPISSSICHLTNESDGHTTSLYGIGFGPFIITNKHLFRRNNGTLVVQSLHGVFKVKDTTTLQQHLVDGRDMIIIRMPKDFPPFPQKLKFREPQREERICLVTTNFQTKSMSSMVSDTSCTFPSGDGIFWKFWIQTKDGQCGSPLVSTRDGFIVGIHSASNFTNTNNYFTSVPKNFMELLTNQEAQQWVSGWRLNADSVLWGGHKVFMVKPEEPFQPVKEATQL [H143F] | 0.105 | 0.0718 | 0.0678 | 0.0674 | 0.104 | – | – | 0.0643 | 0.0783 | 0.0732 | 0.0697 | 0.0833 | – | – | – | 0.0675 | – | –
MGESLFKGPRDYNPISSSICHLTNESDGHTTSLYGIGFGPFIITNKHLFRRNNGTLVVQSLHGVFKVKDTTTLQQHLVDGRDMIIIRMPKDFPPFPQKLKFREPQREERICLVTTNFQTKSMSSMVSDTSCTFPSGDGIFWKHWIQTKDGDCGSPLVSTRDGFIVGIHSASNFTNTNNYFTSVPKNFMELLTNQEAQQWVSGWRLNADSVLWGGHKVFMVKPEEPFQPVKEATQL [Q151D] | 0.0804 | 0.0581 | 0.0727 | 0.064 | 0.0719 | 0.125 | 0.0463 | 0.0936 | 0.0867 | 0.0823 | 0.0737 | 0.0768 | 0.0914 | 0.138 | 0.0857 | 0.0767 | 0.094 | –
MGESLFKGPRDYNPISSSICHLTNESDGHTTSLYGIGFGPFIITNKHLFRRNNGTLVVQSLHGVFKVKDTTTLQQHLVDGRDMIIIRMPKDFPPFPQKLKFREPQREERICLVTTNFQTKSMSSMVSDTSCTFPSGDGIFWKHWIQTKDGQCGKPLVSTRDGFIVGIHSASNFTNTNNYFTSVPKNFMELLTNQEAQQWVSGWRLNADSVLWGGHKVFMVKPEEPFQPVKEATQL [S154K] | 0.11 | 0.0922 | 0.0653 | 0.0679 | 0.0661 | – | 0.0428 | 0.0718 | 0.0641 | – | 0.0654 | – | – | 0.101 | 0.0601 | – | 0.0776 | –
MGESLFKGPRDYNPISSSICHLTNESDGHTTSLYGIGFGPFIITNKHLFRRNNGTLVVQSLHGVFKVKDTTTLQQHLVDGRDMIIIRMPKDFPPFPQKLKFREPQREERICLVTTNFQTKSMSSMVSDTSCTFPSGDGIFWKHWIQTKDGQCGTPLVSTRDGFIVGIHSASNFTNTNNYFTSVPKNFMELLTNQEAQQWVSGWRLNADSVLWGGHKVFMVKPEEPFQPVKEATQL [S154T] | 0.115 | 0.0656 | 0.0618 | – | 0.0723 | – | – | 0.0843 | 0.0627 | 0.0494 | 0.0596 | 0.0712 | 0.0744 | – | 0.0655 | – | – | –
MGESLFKGPRDYNPISSSICHLTNESDGHTTSLYGIGFGPFIITNKHLFRRNNGTLVVQSLHGVFKVKDTTTLQQHLVDGRDMIIIRMPKDFPPFPQKLKFREPQREERICLVTTNFQTKSMSSMVSDTSCTFPSGDGIFWKHWIQTKDGQCGSPLVPTRDGFIVGIHSASNFTNTNNYFTSVPKNFMELLTNQEAQQWVSGWRLNADSVLWGGHKVFMVKPEEPFQPVKEATQL [S158P] | 0.0517 | 0.0597 | 0.048 | 0.0588 | 0.0478 | 0.0569 | 0.0459 | 0.044 | 0.0543 | 0.0567 | – | – | 0.0544 | 0.0555 | – | 0.0457 | – | 0.0536
